Whole data set: some 33,000 sequences, median “E-score (-0.5 to 0.5)” near -0.041, cut for the highest 2% near 0.37. The list shows a part of the results.
molecular target: T1, Ecm22 (UniProt Q05958); test: PBM E-score (8-mer binding enrichment) (E-score (-0.5 to 0.5)); higher = stronger / more preferred TF binding; most listed sequences are background and not binding sites; conditions: protein concentration: 200 nM; construct: GST-full length
T1 sequence: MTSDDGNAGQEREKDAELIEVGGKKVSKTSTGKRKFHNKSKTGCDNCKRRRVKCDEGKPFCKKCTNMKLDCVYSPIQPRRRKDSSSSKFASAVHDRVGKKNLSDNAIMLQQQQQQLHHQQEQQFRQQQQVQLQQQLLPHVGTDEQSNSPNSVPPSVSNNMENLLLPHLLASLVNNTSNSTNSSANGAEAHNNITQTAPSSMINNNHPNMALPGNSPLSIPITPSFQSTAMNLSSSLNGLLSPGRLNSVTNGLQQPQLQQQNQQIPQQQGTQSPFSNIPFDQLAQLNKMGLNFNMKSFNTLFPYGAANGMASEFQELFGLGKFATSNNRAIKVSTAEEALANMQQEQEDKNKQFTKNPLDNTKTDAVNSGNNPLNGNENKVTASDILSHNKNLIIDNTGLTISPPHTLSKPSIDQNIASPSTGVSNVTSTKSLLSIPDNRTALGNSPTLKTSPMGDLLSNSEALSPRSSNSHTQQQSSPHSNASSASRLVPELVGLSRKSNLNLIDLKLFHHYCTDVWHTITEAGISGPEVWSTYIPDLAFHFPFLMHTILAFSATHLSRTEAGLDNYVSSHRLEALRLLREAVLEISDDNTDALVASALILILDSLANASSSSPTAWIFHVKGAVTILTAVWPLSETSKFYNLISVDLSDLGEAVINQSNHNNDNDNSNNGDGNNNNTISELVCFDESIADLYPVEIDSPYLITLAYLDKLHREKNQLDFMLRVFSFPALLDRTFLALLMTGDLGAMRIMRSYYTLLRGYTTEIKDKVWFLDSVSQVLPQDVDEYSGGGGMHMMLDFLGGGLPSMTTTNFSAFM
In short: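 GST-tagged yeast TFs (full-length or DNA-binding domain) were made by PURExpress in vitro transcription/translation and applied at about 100-200 nM to universal all-10-mer Agilent arrays. The arrays were made double-stranded by primer extension, on fresh or once-stripped slides. Bound protein was detected with fluorescent anti-GST, and scans were normalised with masliner. Each ungapped eight-base word, pooled with its reverse complement, received an E-score (modified Wilcoxon-Mann-Whitney statistic) from the Universal PBM Analysis Suite.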

Sequence	PBM E-score
AGAGGTTA	-0.14
AATCACCG	0.0152
TGCCGAAA	0.0373
CCGCTATA	0.00229
AATAGGAA	-0.0522
CGATGCCC	0.0358
CGGTGCGA	0.297
AATTGGAA	-0.0133
ATTGGAGA	0.0401
ACAACTCA	-0.157
CCAGACGG	-0.277
CGTTATCC	-0.00059
CTCGGATC	0.27
AACAGACC	0.02
CAACTCTG	-0.0711
CCTGACCG	0.0242
CATTCGCC	-0.0739
AAAGATTT	0.0259
CCGGTGCC	-0.147
AGGCTGTG	-0.17
ACCTAGCC	-0.184
AACCCGGA	0.107

Sequence	PBM E-score
ATGCCATC	0.0126
ACGCGGTA	0.145
GTTCAGTA	0.185
GCATATAC	0.174
CCTTCCAA	-0.216
GTATAGCA	0.355
TACACCTA	0.0394
CATAGGCG	-0.118
GGGCAAAA	-0.0457
ACGGGCAT	0.259
GCAGGGAC	-0.252
GAACGCTA	0.0782
GCTAGAGC	0.011
CTACGGTC	0.0518
AAATCATT	-0.139
CACAGTAC	-0.0289
CTCCATTC	-0.209
AGAATCCC	0.0534
CTCGGGGC	-0.135
CCCTTTTC	0.0358
CAGTCCGG	-0.052
CACAACAC	0.0881

Sequence	PBM E-score
ATTGCTCC	-0.0538
ATATCGGA	0.0637
CAGCCTGG	-0.229
TACCCGTA	0.353
CTCCTACC	-0.289
AGACTGTG	-0.0881
CAAAAAGG	-0.0945
AGTTGTTC	0.114
ATATCCGC	0.176
CTAATGTC	-0.169
GTACGGAA	0.4
TCAGGTAA	-0.171
AGCAGTTC	-0.129
AAATGGAC	-0.0777
CGTTATAA	0.14
ATCAGCCA	-0.0405
TACGGGGA	0.348
AGGCCATC	-0.119
TCTTATAA	0.0801
TCGGATAA	0.372
AAAAGGGT	-0.0721
AGTCCCCA	-0.267

Sequence	PBM E-score
ATCGCCGA	0.00202
ATTAAAGC	-0.0537
CAGCGCTC	-0.23
TCACTCCA	-0.141
CGCGTAAC	0.142
CGGTCAGA	-0.0542
CTTCGCGA	0.234
TCAACGAA	0.187
AGCGAAAA	0.15
ATGGCCAG	-0.231
GTATGCCA	-0.0264
CAATCTTA	0.00208
AACGCGGT	0.11
ACTTTCCC	-0.207
CTTGTTTA	-0.00529
CCGTGATC	-0.0217
ACCTTGCA	0.00298
ACCAGCGG	-0.316
CCTCAAGA	-0.271
AGGTAACT	-0.122
CCCTTTCC	-0.176
ACCAACAA	0.0291

Sequence	PBM E-score
AAAGAGAA	-0.142
AGCCGGCC	-0.201
ACCTACTC	-0.125
CACGGTCA	-0.161
AAGTCAGA	-0.268
AAGCTTGA	-0.212
GAAATATC	0.211
AGTATGTC	-0.0116
GCCCAAAC	0.0298
AAAGTCTT	-0.127
TTGAAAAA	-0.0492
CCCCCAGA	-0.145
AGAGAAGA	-0.0414
ACGACGAA	0.365
ACTCTACT	-0.0259
ATTGCGTC	-0.223
CACCCAAC	-0.0777
CGTAATTC	0.293
AACTTATG	-0.0748
CGCCAGTC	0.014
ATAAGCTA	-0.0667

From the supplement of paper PMC3334620
